Measurements as given in article PMC9925369.
No constants are given. Whether binding was seen depends on the method and setting. In cells and extracts the contact can be indirect. Some entries that bind do so weakly or less than the wild type. Each block holds one molecule with its values, some of them ahead of it.

Protein sequences, listed by entry. Tags and fused reporters are not part of them. Lines headed by an entry give the natural chain unless they say otherwise; changes in a name come on top. Residues count along the entry.
UniProt P31941: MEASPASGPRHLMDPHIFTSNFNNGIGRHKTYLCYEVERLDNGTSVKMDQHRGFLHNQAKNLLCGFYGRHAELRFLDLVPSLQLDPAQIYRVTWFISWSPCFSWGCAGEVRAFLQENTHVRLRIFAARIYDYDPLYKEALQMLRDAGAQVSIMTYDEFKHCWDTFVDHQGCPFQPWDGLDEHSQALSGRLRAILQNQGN
UniProt Q9UH17: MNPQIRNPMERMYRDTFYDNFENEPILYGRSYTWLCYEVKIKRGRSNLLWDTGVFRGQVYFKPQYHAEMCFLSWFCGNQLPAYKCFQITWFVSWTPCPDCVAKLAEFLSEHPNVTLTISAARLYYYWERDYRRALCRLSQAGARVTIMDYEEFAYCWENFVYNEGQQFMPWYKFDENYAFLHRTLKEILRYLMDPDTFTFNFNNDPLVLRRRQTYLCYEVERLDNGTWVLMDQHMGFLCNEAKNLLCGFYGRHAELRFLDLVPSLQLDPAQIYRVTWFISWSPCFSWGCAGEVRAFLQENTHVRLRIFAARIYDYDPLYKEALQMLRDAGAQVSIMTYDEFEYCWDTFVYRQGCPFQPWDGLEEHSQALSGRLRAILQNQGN
APOBEC3B-ΔNTD-GFP/Flag (amino acids 186-382): residues 186-382 of Q9UH17
UniProt P11940: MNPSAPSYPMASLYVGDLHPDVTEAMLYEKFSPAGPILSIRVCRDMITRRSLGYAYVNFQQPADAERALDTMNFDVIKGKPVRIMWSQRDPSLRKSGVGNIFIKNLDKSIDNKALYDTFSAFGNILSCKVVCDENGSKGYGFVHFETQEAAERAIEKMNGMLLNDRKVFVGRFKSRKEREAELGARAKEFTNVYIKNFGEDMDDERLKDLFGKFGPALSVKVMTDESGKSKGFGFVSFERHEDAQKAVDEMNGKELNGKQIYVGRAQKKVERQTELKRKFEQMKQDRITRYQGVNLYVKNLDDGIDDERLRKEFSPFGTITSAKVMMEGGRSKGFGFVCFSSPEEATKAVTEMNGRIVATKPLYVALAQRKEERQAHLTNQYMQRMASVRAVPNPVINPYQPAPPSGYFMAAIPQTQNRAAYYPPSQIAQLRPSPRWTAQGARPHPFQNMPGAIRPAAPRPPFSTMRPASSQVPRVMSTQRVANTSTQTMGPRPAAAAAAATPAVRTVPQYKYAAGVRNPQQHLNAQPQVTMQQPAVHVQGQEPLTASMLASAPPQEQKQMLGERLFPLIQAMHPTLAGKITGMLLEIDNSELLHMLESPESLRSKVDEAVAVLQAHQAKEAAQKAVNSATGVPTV
UniProt O00571: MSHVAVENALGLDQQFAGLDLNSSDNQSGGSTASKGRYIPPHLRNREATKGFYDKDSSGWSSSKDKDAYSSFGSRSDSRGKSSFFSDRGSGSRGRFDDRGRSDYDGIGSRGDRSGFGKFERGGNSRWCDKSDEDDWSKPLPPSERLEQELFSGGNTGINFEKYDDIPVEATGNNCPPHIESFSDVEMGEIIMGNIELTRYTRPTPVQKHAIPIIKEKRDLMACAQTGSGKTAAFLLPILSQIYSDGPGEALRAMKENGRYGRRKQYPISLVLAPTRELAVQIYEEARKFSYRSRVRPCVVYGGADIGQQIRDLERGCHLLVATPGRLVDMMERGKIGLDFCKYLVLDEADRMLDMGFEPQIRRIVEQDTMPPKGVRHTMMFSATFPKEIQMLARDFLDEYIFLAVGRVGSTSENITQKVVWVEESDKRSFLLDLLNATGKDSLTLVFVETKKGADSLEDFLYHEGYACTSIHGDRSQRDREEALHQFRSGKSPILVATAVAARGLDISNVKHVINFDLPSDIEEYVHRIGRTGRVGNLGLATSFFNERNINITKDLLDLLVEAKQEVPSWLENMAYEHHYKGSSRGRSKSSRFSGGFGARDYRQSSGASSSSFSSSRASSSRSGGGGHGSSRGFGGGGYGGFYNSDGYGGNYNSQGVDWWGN
UniProt Q13283: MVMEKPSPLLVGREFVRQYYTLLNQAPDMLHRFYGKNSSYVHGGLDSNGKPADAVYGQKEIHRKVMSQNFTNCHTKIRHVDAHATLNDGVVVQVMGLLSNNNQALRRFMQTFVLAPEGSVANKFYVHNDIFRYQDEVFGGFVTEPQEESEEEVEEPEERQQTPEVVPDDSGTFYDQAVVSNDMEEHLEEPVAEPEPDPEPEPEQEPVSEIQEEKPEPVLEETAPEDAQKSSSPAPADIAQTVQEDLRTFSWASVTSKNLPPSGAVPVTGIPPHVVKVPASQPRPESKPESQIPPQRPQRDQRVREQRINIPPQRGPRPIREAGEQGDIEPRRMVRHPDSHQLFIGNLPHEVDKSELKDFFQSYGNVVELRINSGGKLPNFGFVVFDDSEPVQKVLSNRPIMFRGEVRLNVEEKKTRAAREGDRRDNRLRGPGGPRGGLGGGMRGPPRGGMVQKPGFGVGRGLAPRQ

Tests used:
[1] = target: APOBEC3A-GFP/Flag (human) (UniProt P31941); test: co-IP; U2OS or HEK-293T transfected with A3B or A3A constructs; lysate treated with RNase A and Benzonase; anti-Flag M2 gel or GFP-Trap beads, 2 h 4 °C; washes with 250 mM NaCl; western blot; also after knock-down of DDX3 or PABPC1 and after induction of stress granules (interactions not affected)
[2] = target: APOBEC3B-GFP/Flag (human) (UniProt Q9UH17); test: as above
[3] = target: APOBEC3B-ΔNTD-GFP/Flag (amino acids 186-382) (human) (UniProt Q9UH17); test: as above
[4] = target: PABPC1 (human (endogenous in HEK-293T and U2OS)) (UniProt P11940); test: co-IP; immunoprecipitation of endogenous PABPC1 (antibody and protein G agarose) from U2OS-A3B-flag cells without DOX (A3B not induced); western blot
[5] = target: PABPC1 (human (endogenous in HEK-293T and U2OS)) (UniProt P11940); test: co-IP; immunoprecipitation of endogenous PABPC1 (antibody and protein G agarose) from U2OS-A3B-flag cells with DOX (A3B expressed); lysate treated with RNase A and Benzonase; western blot

binding [1]: no binding | binding [2]: binds | binding [3]: no binding
Molecule: DDX3 (from UniProt O00571 1-662)

binding [2]: no binding
Molecule: G3BP1 (from UniProt Q13283 1-466)

binding [1]: no binding | binding [2]: binds | binding [3]: no binding
Molecule: PABPC1 (from UniProt P11940 1-636)

binding [4]: binds | binding [5]: binds | binding [1]: no binding | binding [3]: no binding
B1: MOV10 (protein, UniProt Q9HCE1 1-1003)
chain: MPSKFSCRQLREAGQCFESFLVVRGLDMETDRERLRTIYNRDFKISFGTPAPGFSSMLYGMKIANLAYVTKTRVRFFRLDRWADVRFPEKRRMKLGSDISKHHKSLLAKIFYDRAEYLHGKHGVDVEVQGPHEARDGQLLIRLDLNRKEVLTLRLRNGGTQSVTLTHLFPLCRTPQFAFYNEDQELPCPLGPGECYELHVHCKTSFVGYFPATVLWELLGPGESGSEGAGTFYIARFLAAVAHSPLAAQLKPMTPFKRTRITGNPVVTNRIEEGERPDRAKGYDLELSMALGTYYPPPRLRQLLPMLLQGTSIFTAPKEIAEIKAQLETALKWRNYEVKLRLLLHLEELQMEHDIRHYDLESVPMTWDPVDQNPRLLTLEVPGVTESRPSVLRGDHLFALLSSETHQEDPITYKGFVHKVELDRVKLSFSMSLLSRFVDGLTFKVNFTFNRQPLRVQHRALELTGRWLLWPMLFPVAPRDVPLLPSDVKLKLYDRSLESNPEQLQAMRHIVTGTTRPAPYIIFGPPGTGKTVTLVEAIKQVVKHLPKAHILACAPSNSGADLLCQRLRVHLPSSIYRLLAPSRDIRMVPEDIKPCCNWDAKKGEYVFPAKKKLQEYRVLITTLITAGRLVSAQFPIDHFTHIFIDEAGHCMEPESLVAIAGLMEVKETGDPGGQLVLAGDPRQLGPVLRSPLTQKHGLGYSLLERLLTYNSLYKKGPDGYDPQFITKLLRNYRSHPTILDIPNQLYYEGELQACADVVDRERFCRWAGLPRQGFPIIFHGVMGKDEREGNSPSFFNPEEAATVTSYLKLLLAPSSKKGKARLSPRSVGVISPYRKQVEKIRYCITKLDRELRGLDDIKDLKVGSVEEFQGQERSVILISTVRSSQSFVQLDLDFNLGFLKNPKRFNVAVTRAKALLIIVGNPLLLGHDPDWKVFLEFCKENGGYTGCPFPAKLDLQQGQNLLQGLSKLSPSTSGPHSHDYLPQEREGEGGLSLQVEPEWRNEL

binding [2]: binds
B2: MATR3 (protein, UniProt P43243 1-847)
chain: MSKSFQQSSLSRDSQGHGRDLSAAGIGLLAAATQSLSMPASLGRMNQGTARLASLMNLGMSSSLNQQGAHSALSSASTSSHNLQSIFNIGSRGPLPLSSQHRGDADQASNILASFGLSARDLDELSRYPEDKITPENLPQILLQLKRRRTEEGPTLSYGRDGRSATREPPYRVPRDDWEEKRHFRRDSFDDRGPSLNPVLDYDHGSRSQESGYYDRMDYEDDRLRDGERCRDDSFFGETSHNYHKFDSEYERMGRGPGPLQERSLFEKKRGAPPSSNIEDFHGLLPKGYPHLCSICDLPVHSNKEWSQHINGASHSRRCQLLLEIYPEWNPDNDTGHTMGDPFMLQQSTNPAPGILGPPPPSFHLGGPAVGPRGNLGAGNGNLQGPRHMQKGRVETSRVVHIMDFQRGKNLRYQLLQLVEPFGVISNHLILNKINEAFIEMATTEDAQAAVDYYTTTPALVFGKPVRVHLSQKYKRIKKPEGKPDQKFDQKQELGRVIHLSNLPHSGYSDSAVLKLAEPYGKIKNYILMRMKSQAFIEMETREDAMAMVDHCLKKALWFQGRCVKVDLSEKYKKLVLRIPNRGIDLLKKDKSRKRSYSPDGKESPSDKKSKTDGSQKTESSTEGKEQEEKSGEDGEKDTKDDQTEQEPNMLLESEDELLVDEEEAAALLESGSSVGDETDLANLGDVASDGKKEPSDKAVKKDGSASAAAKKKLKKVDKIEELDQENEAALENGIKNEENTEPGAESSENADDPNKDTSENADGQSDENKDDYTIPDEYRIGPYQPNVPVGIDYVIPKTGFYCKLCSLFYTNEEVAKNTHCSSLPHYQKLKKFLNKLAEERRQKKET
